Results from publication PMC9925369.
Results are given in words; binding and its absence hold for the method and conditions named. In cells and extracts the contact can be indirect. Some results given as binding are weak or reduced against the parent protein; the word gives no strength.

Chains of the proteins cited; added tags and fusions are not shown. Lines headed by an entry give the natural chain unless they say otherwise; changes in a name come on top. Residues count along the entry.
UniProt P31941: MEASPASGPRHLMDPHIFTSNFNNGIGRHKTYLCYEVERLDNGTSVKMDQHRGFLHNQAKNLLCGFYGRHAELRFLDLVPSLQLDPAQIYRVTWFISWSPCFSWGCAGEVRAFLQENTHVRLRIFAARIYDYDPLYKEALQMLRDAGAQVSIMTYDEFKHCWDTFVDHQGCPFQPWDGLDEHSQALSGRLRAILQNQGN
UniProt Q9UH17: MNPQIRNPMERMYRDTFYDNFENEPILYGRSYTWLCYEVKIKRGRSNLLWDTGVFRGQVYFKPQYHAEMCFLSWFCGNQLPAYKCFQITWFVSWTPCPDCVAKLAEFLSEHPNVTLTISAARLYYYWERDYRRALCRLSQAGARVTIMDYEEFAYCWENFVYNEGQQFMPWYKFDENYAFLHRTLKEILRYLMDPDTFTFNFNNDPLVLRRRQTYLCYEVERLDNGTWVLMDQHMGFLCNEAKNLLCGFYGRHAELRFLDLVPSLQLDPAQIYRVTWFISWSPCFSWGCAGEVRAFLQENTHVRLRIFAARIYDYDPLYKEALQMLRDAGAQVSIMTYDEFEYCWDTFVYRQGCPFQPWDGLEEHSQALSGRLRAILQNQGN
APOBEC3B-ΔNTD-GFP/Flag (amino acids 186-382): residues 186-382 of Q9UH17
UniProt P11940: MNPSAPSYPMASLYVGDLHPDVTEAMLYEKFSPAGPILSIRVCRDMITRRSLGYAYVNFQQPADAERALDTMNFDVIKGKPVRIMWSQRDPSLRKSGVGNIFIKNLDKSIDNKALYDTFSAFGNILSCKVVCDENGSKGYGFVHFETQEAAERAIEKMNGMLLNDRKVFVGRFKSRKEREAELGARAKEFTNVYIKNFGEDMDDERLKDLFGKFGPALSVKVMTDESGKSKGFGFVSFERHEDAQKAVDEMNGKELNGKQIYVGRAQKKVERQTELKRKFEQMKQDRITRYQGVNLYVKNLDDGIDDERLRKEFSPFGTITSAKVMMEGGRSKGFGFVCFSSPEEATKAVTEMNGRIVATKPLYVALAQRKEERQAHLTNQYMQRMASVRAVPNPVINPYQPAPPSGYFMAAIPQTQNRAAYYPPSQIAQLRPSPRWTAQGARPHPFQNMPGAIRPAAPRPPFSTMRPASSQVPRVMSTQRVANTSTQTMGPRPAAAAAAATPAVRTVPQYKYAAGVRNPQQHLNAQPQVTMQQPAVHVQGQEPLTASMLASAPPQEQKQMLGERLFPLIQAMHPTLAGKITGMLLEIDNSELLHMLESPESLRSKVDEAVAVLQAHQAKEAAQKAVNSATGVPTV
UniProt O00571: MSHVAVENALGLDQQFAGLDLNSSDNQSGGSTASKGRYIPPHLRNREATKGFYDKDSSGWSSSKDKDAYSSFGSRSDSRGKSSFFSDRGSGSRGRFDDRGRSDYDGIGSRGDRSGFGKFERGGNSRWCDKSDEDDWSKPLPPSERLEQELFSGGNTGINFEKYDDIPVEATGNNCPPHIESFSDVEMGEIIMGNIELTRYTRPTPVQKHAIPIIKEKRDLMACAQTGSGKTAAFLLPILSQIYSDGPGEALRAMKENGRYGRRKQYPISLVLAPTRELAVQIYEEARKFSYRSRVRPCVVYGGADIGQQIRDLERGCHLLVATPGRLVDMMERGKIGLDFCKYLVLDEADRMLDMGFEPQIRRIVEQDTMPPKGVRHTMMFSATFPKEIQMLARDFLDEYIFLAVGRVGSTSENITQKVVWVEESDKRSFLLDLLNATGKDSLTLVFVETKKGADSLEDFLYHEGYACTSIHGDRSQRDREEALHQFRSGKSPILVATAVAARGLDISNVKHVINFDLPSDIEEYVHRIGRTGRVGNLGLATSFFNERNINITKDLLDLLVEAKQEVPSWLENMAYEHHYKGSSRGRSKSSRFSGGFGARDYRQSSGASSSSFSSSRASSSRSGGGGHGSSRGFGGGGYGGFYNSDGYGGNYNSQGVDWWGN
UniProt Q13283: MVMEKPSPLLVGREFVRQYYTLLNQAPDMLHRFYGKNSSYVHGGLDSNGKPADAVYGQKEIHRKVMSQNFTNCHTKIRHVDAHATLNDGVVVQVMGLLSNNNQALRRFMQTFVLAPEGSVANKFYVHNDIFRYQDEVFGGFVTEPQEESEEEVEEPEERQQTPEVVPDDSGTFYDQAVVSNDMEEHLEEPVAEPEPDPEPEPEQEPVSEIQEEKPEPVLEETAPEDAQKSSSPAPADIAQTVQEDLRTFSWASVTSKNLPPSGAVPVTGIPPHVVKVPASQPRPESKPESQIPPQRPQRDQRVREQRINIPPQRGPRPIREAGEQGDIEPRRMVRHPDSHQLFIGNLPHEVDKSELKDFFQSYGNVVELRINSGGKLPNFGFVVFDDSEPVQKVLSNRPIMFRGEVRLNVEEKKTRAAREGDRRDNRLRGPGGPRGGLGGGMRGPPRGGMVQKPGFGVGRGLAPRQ

B1: MOV10 (protein, UniProt Q9HCE1 1-1003)
chain: MPSKFSCRQLREAGQCFESFLVVRGLDMETDRERLRTIYNRDFKISFGTPAPGFSSMLYGMKIANLAYVTKTRVRFFRLDRWADVRFPEKRRMKLGSDISKHHKSLLAKIFYDRAEYLHGKHGVDVEVQGPHEARDGQLLIRLDLNRKEVLTLRLRNGGTQSVTLTHLFPLCRTPQFAFYNEDQELPCPLGPGECYELHVHCKTSFVGYFPATVLWELLGPGESGSEGAGTFYIARFLAAVAHSPLAAQLKPMTPFKRTRITGNPVVTNRIEEGERPDRAKGYDLELSMALGTYYPPPRLRQLLPMLLQGTSIFTAPKEIAEIKAQLETALKWRNYEVKLRLLLHLEELQMEHDIRHYDLESVPMTWDPVDQNPRLLTLEVPGVTESRPSVLRGDHLFALLSSETHQEDPITYKGFVHKVELDRVKLSFSMSLLSRFVDGLTFKVNFTFNRQPLRVQHRALELTGRWLLWPMLFPVAPRDVPLLPSDVKLKLYDRSLESNPEQLQAMRHIVTGTTRPAPYIIFGPPGTGKTVTLVEAIKQVVKHLPKAHILACAPSNSGADLLCQRLRVHLPSSIYRLLAPSRDIRMVPEDIKPCCNWDAKKGEYVFPAKKKLQEYRVLITTLITAGRLVSAQFPIDHFTHIFIDEAGHCMEPESLVAIAGLMEVKETGDPGGQLVLAGDPRQLGPVLRSPLTQKHGLGYSLLERLLTYNSLYKKGPDGYDPQFITKLLRNYRSHPTILDIPNQLYYEGELQACADVVDRERFCRWAGLPRQGFPIIFHGVMGKDEREGNSPSFFNPEEAATVTSYLKLLLAPSSKKGKARLSPRSVGVISPYRKQVEKIRYCITKLDRELRGLDDIKDLKVGSVEEFQGQERSVILISTVRSSQSFVQLDLDFNLGFLKNPKRFNVAVTRAKALLIIVGNPLLLGHDPDWKVFLEFCKENGGYTGCPFPAKLDLQQGQNLLQGLSKLSPSTSGPHSHDYLPQEREGEGGLSLQVEPEWRNEL
B2: MATR3 (protein, UniProt P43243 1-847)
chain: MSKSFQQSSLSRDSQGHGRDLSAAGIGLLAAATQSLSMPASLGRMNQGTARLASLMNLGMSSSLNQQGAHSALSSASTSSHNLQSIFNIGSRGPLPLSSQHRGDADQASNILASFGLSARDLDELSRYPEDKITPENLPQILLQLKRRRTEEGPTLSYGRDGRSATREPPYRVPRDDWEEKRHFRRDSFDDRGPSLNPVLDYDHGSRSQESGYYDRMDYEDDRLRDGERCRDDSFFGETSHNYHKFDSEYERMGRGPGPLQERSLFEKKRGAPPSSNIEDFHGLLPKGYPHLCSICDLPVHSNKEWSQHINGASHSRRCQLLLEIYPEWNPDNDTGHTMGDPFMLQQSTNPAPGILGPPPPSFHLGGPAVGPRGNLGAGNGNLQGPRHMQKGRVETSRVVHIMDFQRGKNLRYQLLQLVEPFGVISNHLILNKINEAFIEMATTEDAQAAVDYYTTTPALVFGKPVRVHLSQKYKRIKKPEGKPDQKFDQKQELGRVIHLSNLPHSGYSDSAVLKLAEPYGKIKNYILMRMKSQAFIEMETREDAMAMVDHCLKKALWFQGRCVKVDLSEKYKKLVLRIPNRGIDLLKKDKSRKRSYSPDGKESPSDKKSKTDGSQKTESSTEGKEQEEKSGEDGEKDTKDDQTEQEPNMLLESEDELLVDEEEAAALLESGSSVGDETDLANLGDVASDGKKEPSDKAVKKDGSASAAAKKKLKKVDKIEELDQENEAALENGIKNEENTEPGAESSENADDPNKDTSENADGQSDENKDDYTIPDEYRIGPYQPNVPVGIDYVIPKTGFYCKLCSLFYTNEEVAKNTHCSSLPHYQKLKKFLNKLAEERRQKKET

Tests used:
[1] = molecular target: APOBEC3A-GFP/Flag (human) (UniProt P31941); assay: co-IP; U2OS or HEK-293T transfected with A3B or A3A constructs; lysate treated with RNase A and Benzonase; anti-Flag M2 gel or GFP-Trap beads, 2 h 4 °C; washes with 250 mM NaCl; western blot; also after knock-down of DDX3 or PABPC1 and after induction of stress granules (interactions not affected)
[2] = molecular target: APOBEC3B-GFP/Flag (human) (UniProt Q9UH17); assay: as above
[3] = molecular target: APOBEC3B-ΔNTD-GFP/Flag (amino acids 186-382) (human) (UniProt Q9UH17); assay: as above
[4] = molecular target: PABPC1 (human (endogenous in HEK-293T and U2OS)) (UniProt P11940); assay: co-IP; immunoprecipitation of endogenous PABPC1 (antibody and protein G agarose) from U2OS-A3B-flag cells without DOX (A3B not induced); western blot
[5] = molecular target: PABPC1 (human (endogenous in HEK-293T and U2OS)) (UniProt P11940); assay: co-IP; immunoprecipitation of endogenous PABPC1 (antibody and protein G agarose) from U2OS-A3B-flag cells with DOX (A3B expressed); lysate treated with RNase A and Benzonase; western blot

Molecule | binding [1] | binding [2] | binding [3] | binding [4] | binding [5]
PABPC1 (from UniProt P11940 1-636) | no binding | binds | no binding | – | –
DDX3 (from UniProt O00571 1-662) | no binding | binds | no binding | – | –
G3BP1 (from UniProt Q13283 1-466) | – | no binding | – | – | –
B1 | no binding | – | no binding | binds | binds
B2 | – | binds | – | – | –
